Measured values: the supplement of paper PMC8728848
This is one part of the list.

Tests used:
Assay in all cases: glycan array binding signal (z-score within array); higher = stronger binding
Settings in all cases: glycan notation: IUPAC condensed, linker removed
[1] = biological target: GlcNAc(b1-3)Gal(b1-4)GlcNAc(b1-3)Gal(b1-4)GlcNAc(b1-3)GalNAc
Outline: (§1)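 Glycan array binding is given as a within-array Z-score, which can be read as non-binding when negative. The arrays, 3228 of them, came from the Consortium for Functional Glycomics database and were retained only where the protein sequence was available. Z-scores were averaged across arrays of the same protein sequence at different concentrations or buffers and across linkers.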

[2] = biological target: GlcNAc(b1-3)Gal(b1-4)GlcNAc(b1-3)GalNAc
Outline: as §1

[3] = biological target: GlcNAc(b1-3)Gal(b1-4)GlcNAc(b1-3)[GlcNAc(b1-3)Gal(b1-4)GlcNAc(b1-3)]GalNAc
Outline: as §1

[4] = biological target: GlcNAc(b1-3)Gal(b1-4)GlcNAc(b1-6)[Gal(b1-3)]GalNAc
Outline: as §1

[5] = biological target: GlcNAc(b1-3)Gal(b1-4)GlcNAc(b1-6)[GlcNAc(b1-3)Gal(b1-3)]GalNAc
Outline: as §1

[6] = biological target: GlcNAc(b1-3)Gal(b1-4)GlcNAc(b1-6)[GlcNAc(b1-3)]Gal(b1-4)GlcNAc
Outline: as §1

GlcNAc(b1-3)GalNAc = biological target: GlcNAc(b1-3)GalNAc
Outline: as §1

GlcNAc(b1-3)Man = biological target: GlcNAc(b1-3)Man
Outline: as §1

[7] = biological target: GlcNAc(b1-3)[GlcNAc(b1-4)][GlcNAc(b1-6)]GlcNAc
Outline: as §1

[8] = biological target: GlcNAc(b1-3)[GlcNAc(b1-6)]Gal(b1-4)GlcNAc
Outline: as §1

[9] = biological target: GlcNAc(b1-3)[GlcNAc(b1-6)]GalNAc
Outline: as §1

[10] = biological target: GlcNAc(b1-4)Gal(b1-4)GlcNAc
Outline: as §1

GlcNAc(b1-4)GlcNAc = biological target: GlcNAc(b1-4)GlcNAc
Outline: as §1

[11] = biological target: GlcNAc(b1-4)GlcNAc(b1-4)GlcNAc
Outline: as §1

[12] = biological target: GlcNAc(b1-4)GlcNAc(b1-4)GlcNAc(b1-4)GlcNAc(b1-4)GlcNAc
Outline: as §1

[13] = biological target: GlcNAc(b1-4)GlcNAc(b1-4)GlcNAc(b1-4)GlcNAc(b1-4)GlcNAc(b1-4)GlcNAc
Outline: as §1

[14] = biological target: GlcNAc(b1-4)[GlcNAc(b1-6)]GalNAc
Outline: as §1

[15] = biological target: GlcNAc(b1-6)Gal(b1-4)GlcNAc
Outline: as §1

GlcNAc(b1-6)GalNAc = biological target: GlcNAc(b1-6)GalNAc
Outline: as §1

[16] = biological target: GlcNAc6S(b1-3)Gal(b1-4)GlcNAc
Outline: as §1

Kdn(a2-3)Gal(b1-3)GalNAc = biological target: Kdn(a2-3)Gal(b1-3)GalNAc
Outline: as §1

Kdn(a2-3)Gal(b1-3)GlcNAc = biological target: Kdn(a2-3)Gal(b1-3)GlcNAc
Outline: as §1

Kdn(a2-3)Gal(b1-4)Glc = biological target: Kdn(a2-3)Gal(b1-4)Glc
Outline: as §1

Kdn(a2-3)Gal(b1-4)GlcNAc = biological target: Kdn(a2-3)Gal(b1-4)GlcNAc
Outline: as §1

[17] = biological target: Kdn(a2-3)Gal(b1-4)[Fuc(a1-3)]GlcNAc
Outline: as §1

Kdn(a2-6)Gal(b1-4)GlcNAc = biological target: Kdn(a2-6)Gal(b1-4)GlcNAc
Outline: as §1

[18] = biological target: Man(a1-2)Man(a1-2)Man(a1-3)Man
Outline: as §1

[19] = biological target: Man(a1-2)Man(a1-2)Man(a1-6)[Man(a1-3)]Man
Outline: as §1

Man(a1-2)Man(a1-3)Man = biological target: Man(a1-2)Man(a1-3)Man
Outline: as §1

[20] = biological target: Man(a1-2)Man(a1-3)[Man(a1-2)Man(a1-6)]Man
Outline: as §1

[21] = biological target: Man(a1-2)Man(a1-3)[Man(a1-2)Man(a1-6)]Man(a1-6)[Man(a1-2)Man(a1-2)Man(a1-3)]Man
Outline: as §1

[22] = biological target: Man(a1-2)Man(a1-3)[Man(a1-2)Man(a1-6)]Man(a1-6)[Man(a1-2)Man(a1-2)Man(a1-3)]Man(b1-4)GlcNAc(b1-4)GlcNAc
Outline: as §1

[23] = biological target: Man(a1-2)Man(a1-3)[Man(a1-6)]Man(a1-6)[Man(a1-2)Man(a1-3)]Man(b1-4)GlcNAc(b1-4)GlcNAc
Outline: as §1

[24] = biological target: Man(a1-2)Man(a1-6)[Man(a1-3)]Man(a1-6)[Man(a1-2)Man(a1-2)Man(a1-3)]Man
Outline: as §1

[25] = biological target: Man(a1-2)Man(a1-6)[Man(a1-3)]Man(a1-6)[Man(a1-2)Man(a1-2)Man(a1-3)]Man(b1-4)GlcNAc(b1-4)GlcNAc
Outline: as §1

Man(a1-3)[Man(a1-6)]Man = biological target: Man(a1-3)[Man(a1-6)]Man
Outline: as §1

[26] = biological target: Man(a1-3)[Man(a1-6)]Man(a1-6)[Man(a1-2)Man(a1-3)]Man(b1-4)GlcNAc(b1-4)GlcNAc
Outline: as §1

[27] = biological target: Man(a1-3)[Man(a1-6)]Man(a1-6)[Man(a1-3)]Man
Outline: as §1

[28] = biological target: Man(a1-3)[Man(a1-6)]Man(a1-6)[Man(a1-3)]Man(b1-4)GlcNAc(b1-4)GlcNAc
Outline: as §1

[29] = biological target: Man(a1-3)[Man(a1-6)]Man(b1-4)GlcNAc(b1-4)GlcNAc
Outline: as §1

[30] = biological target: Man(a1-3)[Man(a1-6)]Man(b1-4)GlcNAc(b1-4)[Fuc(a1-6)]GlcNAc
Outline: as §1

Man(a1-6)Man = biological target: Man(a1-6)Man
Outline: as §1

Man(b1-4)GlcNAc = biological target: Man(b1-4)GlcNAc
Outline: as §1

MurNAc(b1-4)GlcNAc = biological target: MurNAc(b1-4)GlcNAc
Outline: as §1

Neu5Ac(a2-3)Gal = biological target: Neu5Ac(a2-3)Gal
Outline: as §1

B1: Pwp5 ND (Candida glabrata) (protein)
chain: MGSSHHHHHHSSGLVPRGSHMASANPVPLTNVCYFPEEYPRQAGFRAITAGLASTILQGSVDELLNYSGLSSLTTQQTTTTTPNFQLPTLPLPTNVYGLTVVPLYLLVQLQGYFVPPVSGQYTFSLENTNDAAIIFFGNPSAFPCGDLSAWPQASADDITVTDGTFPSRTLFLKAGVAYPMRISYYNSLGSGNLAVSFTDPGGTKRTNWNGYIWRYNSCSTCTYT
[1]
  glycan array binding signal (z-score): -0.597
[2]
  glycan array binding signal (z-score): -0.265
[3]
  glycan array binding signal (z-score): -0.226
[4]
  glycan array binding signal (z-score): 0.82
[5]
  glycan array binding signal (z-score): -0.592
[6]
  glycan array binding signal (z-score): -0.57
GlcNAc(b1-3)GalNAc
  glycan array binding signal (z-score): -1.09
GlcNAc(b1-3)Man
  glycan array binding signal (z-score): -0.2
[7]
  glycan array binding signal (z-score): -0.483
[8]
  glycan array binding signal (z-score): -0.152
[9]
  glycan array binding signal (z-score): -0.371
[10]
  glycan array binding signal (z-score): -0.154
GlcNAc(b1-4)GlcNAc
  glycan array binding signal (z-score): -0.664
[11]
  glycan array binding signal (z-score): 0.732
[12]
  glycan array binding signal (z-score): -0.519
[13]
  glycan array binding signal (z-score): 1.11
[14]
  glycan array binding signal (z-score): -0.595
[15]
  glycan array binding signal (z-score): 0.197
GlcNAc(b1-6)GalNAc
  glycan array binding signal (z-score): -0.162
[16]
  glycan array binding signal (z-score): -0.665
Kdn(a2-3)Gal(b1-3)GalNAc
  glycan array binding signal (z-score): 0.06
Kdn(a2-3)Gal(b1-3)GlcNAc
  glycan array binding signal (z-score): -0.251
Kdn(a2-3)Gal(b1-4)Glc
  glycan array binding signal (z-score): 0.809
Kdn(a2-3)Gal(b1-4)GlcNAc
  glycan array binding signal (z-score): 0.172
[17]
  glycan array binding signal (z-score): 0.136
Kdn(a2-6)Gal(b1-4)GlcNAc
  glycan array binding signal (z-score): -0.561
[18]
  glycan array binding signal (z-score): 0.427
[19]
  glycan array binding signal (z-score): -0.687
Man(a1-2)Man(a1-3)Man
  glycan array binding signal (z-score): -0.624
[20]
  glycan array binding signal (z-score): -0.519
[21]
  glycan array binding signal (z-score): -0.565
[22]
  glycan array binding signal (z-score): -0.293
[23]
  glycan array binding signal (z-score): -0.37
[24]
  glycan array binding signal (z-score): -0.506
[25]
  glycan array binding signal (z-score): -0.285
Man(a1-3)[Man(a1-6)]Man
  glycan array binding signal (z-score): -0.647
[26]
  glycan array binding signal (z-score): -0.441
[27]
  glycan array binding signal (z-score): 5.77
[28]
  glycan array binding signal (z-score): 0.955
[29]
  glycan array binding signal (z-score): 2.05
[30]
  glycan array binding signal (z-score): 0.238
Man(a1-6)Man
  glycan array binding signal (z-score): -0.555
Man(b1-4)GlcNAc
  glycan array binding signal (z-score): -0.41
MurNAc(b1-4)GlcNAc
  glycan array binding signal (z-score): -0.122
Neu5Ac(a2-3)Gal
  glycan array binding signal (z-score): -0.924
